Data: PubChem BioAssay AID360 (National Center for Advancing Translational Sciences (NCATS), 2006)
Out of some 48,000 compounds screened, about 550 (1.1%) were called active. Inconclusive results (about 4%) are left out. Rule as the data show it: active = potency below about 15 µM; inconclusive = mostly about 16 µM to 33 µM; inactive = weaker than that. This is one part of the list.
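Also: the screen sought inhibitors.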
Potency is read from the fitted curve at half-maximal effect.

The molecules below were run against Lysosomal acid glucosylceramidase (Homo sapiens) (UniProt P04062) (assay: Glucocerebrosidase). Conditions: purified enzyme, resorufin glucoside fluorescence (screen aimed at inhibitors), 20 min.
Sequence of UniProt P04062 (P04062 whole entry, looked up): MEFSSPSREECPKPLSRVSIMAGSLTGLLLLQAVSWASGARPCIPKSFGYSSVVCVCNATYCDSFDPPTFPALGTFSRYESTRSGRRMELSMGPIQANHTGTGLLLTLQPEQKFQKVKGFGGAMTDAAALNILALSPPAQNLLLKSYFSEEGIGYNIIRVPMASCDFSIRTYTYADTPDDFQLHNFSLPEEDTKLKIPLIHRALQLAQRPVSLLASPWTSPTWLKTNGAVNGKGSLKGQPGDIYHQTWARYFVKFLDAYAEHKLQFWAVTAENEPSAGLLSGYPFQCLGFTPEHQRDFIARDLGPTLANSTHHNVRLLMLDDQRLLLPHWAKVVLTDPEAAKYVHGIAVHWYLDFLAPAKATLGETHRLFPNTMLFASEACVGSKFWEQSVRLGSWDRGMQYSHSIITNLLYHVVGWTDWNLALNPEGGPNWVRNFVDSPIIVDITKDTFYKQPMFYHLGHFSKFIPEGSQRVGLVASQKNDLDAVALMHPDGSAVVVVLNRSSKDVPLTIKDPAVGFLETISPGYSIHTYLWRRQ
Summary of the method: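 Normal human glucocerebrosidase (0.2 nM final) was assayed with resorufin β-D-glucopyranoside (30 uM final) in 50mM citric acid/KH2PO4, 10mM sodium taurocholate, 0.01% tween-20, pH 5.9. Compounds were titrated; fluorescence (Ex 548, Em 600) read after 20 min at RT.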
With COc1ccc(OC)c(S(=O)(=O)Nc2cccc(C(C)=O)c2)c1 the Potency was inactive: > 76.9 µM.
For CCOC(=O)c1c(NS(=O)(=O)c2cccc(OC)c2)sc2c1CCC2, the Potency was inactive: > 76.9 µM.
Cc1nn(-c2ccccc2)c(C)c1P(=O)(c1ccccc1)N(C)C (stereo not given) was tested, and the Potency was inactive: > 76.9 µM.
Nn1c(SCC(=O)NC(=O)NCc2ccccc2)nnc1C1CC1 was tested, and the Potency was inactive: > 76.9 µM.
In the case of CSc1cccc(NC(=O)CSc2nnc(C)s2)c1, the Potency is reported as inactive: > 76.9 µM.
In the case of Cc1ccc(N2CCN(c3ccc(C)cc3)C(CC(=O)O)C2=O)cc1 (stereo not given), the Potency is reported as inactive: > 76.9 µM.
O=C(c1ccc(S(=O)(=O)N2CCOCC2)cc1)N1CCc2ccccc2C1 was tested, and the Potency was inactive: > 76.9 µM.
For COc1ccc(C(=O)NCCn2cc(SCC(=O)N3CCOCC3)c3ccccc32)cc1, the Potency was inactive: > 76.9 µM.
In the case of Cc1ccc(S(=O)(=O)N[C@H](C(=O)N2CCC(C(=O)N3CCC[C@H]3C(=O)O)CC2)C(C)C)cc1, the Potency is reported as inactive: > 76.9 µM.
In the case of COc1ccc(CCNC(=O)c2cc3c(=O)n4cccc(C)c4nc3n(Cc3ccncc3)c2=N)cc1, the Potency is reported as inactive: > 76.9 µM.
With COc1ccc(S(=O)(=O)Nc2ccccc2SC)cc1C the Potency was inactive: > 76.9 µM.
Cc1ccccc1CS(=O)(=O)CCC(=O)NCCCN1CCN(c2ccccc2F)CC1 was tested, and the Potency was inactive: > 76.9 µM.
CCOC(=O)CSc1nnc(CSc2nc3ccccc3s2)n1C was tested, and the Potency was inactive: > 76.9 µM.
With O=C1CC(c2ccco2)CC(O)=C1C=NCC1NCCc2ccccc21 (stereo not given) the Potency was inactive: > 76.9 µM.
For COCCn1c(COc2cccc(OC)c2)nnc1SCC(=O)N1CCOCC1, the Potency was inactive: > 76.9 µM.
For COCCCNC(=O)c1ccccc1SC, the Potency was inactive: > 76.9 µM.
In the case of O=C(NCCCCCNC(=O)c1cccnc1)c1cccnc1, the Potency is reported as inactive: > 76.9 µM.
In the case of CN(CC(=O)Nc1sccc1C#N)C1CCCCC1, the Potency is reported as inactive: > 76.9 µM.
COC(=O)c1c(NC(=O)CN2CCC(C)CC2)c2c(C)cccc2n1C was tested, and the Potency was inactive: > 76.9 µM.
For COc1ccc(OCc2nnc(SC3CCOC3=O)n2-c2ccccc2)cc1 (stereo not given), the Potency was inactive: > 76.9 µM.
In the case of Cc1cccc(C)c1OCC(=O)Nc1ncn[nH]1, the Potency is reported as inactive: > 76.9 µM.
In the case of CCOC(=O)N1CCN(C(=O)CCS(=O)(=O)c2ccc(Br)s2)CC1, the Potency is reported as inactive: > 76.9 µM.
With CCN(CC)C(=O)CN1CCC(n2c(C)nc3cc(C(F)(F)F)ccc32)CC1 the Potency was inactive: > 76.9 µM.
In the case of CSc1n[nH]c(NCc2cccs2)n1, the Potency is reported as inactive: > 76.9 µM.
In the case of Oc1[nH]c2ccccc2c1/C=N/c1nccs1, the Potency is reported as inactive: > 76.9 µM.
In the case of c1cncc(-c2cccnc2)c1, the Potency is reported as inactive: > 76.9 µM.
In the case of CC(C)NC(=O)Cn1cnc2c1c(=O)n(C)c(=O)n2C, the Potency is reported as inactive: > 76.9 µM.
CCOc1ccc(-n2c(=O)[nH]cc(C(=O)N3CCCc4ccccc43)c2=O)cc1 was tested, and the Potency was inactive: > 76.9 µM.
For OC(Cc1nc2ccccc2[nH]1)c1ccccc1Cl (stereo not given), the Potency was inactive: > 76.9 µM.
O=C(CSc1nn(-c2ccc(F)cc2)c(=S)s1)N1CCN(C(=O)c2ccco2)CC1 was tested, and the Potency was inactive: > 76.9 µM.
For COc1ccc(S(=O)(=O)NCCC(=O)NCc2cccs2)cc1, the Potency was inactive: > 76.9 µM.
For CCCOC(=O)NC(CC)COC(=O)Nc1cc(C)ccc1C (stereo not given), the Potency was inactive: > 76.9 µM.
For CCOc1cc(Br)c(C(=O)O)cc1OCC, the Potency was inactive: > 76.9 µM.
In the case of Cc1[nH]c(=O)[nH]c(=O)c1NS(=O)(=O)c1ccc2c(c1)CCCC2, the Potency is reported as inactive: > 76.9 µM.
Cc1ccc(-n2c(SCC(N)=O)nnc2-c2ccccn2)cc1C was tested, and the Potency was inactive: > 76.9 µM.
With CCCOc1ccccc1-c1nc2c([nH]1)c(=O)[nH]c(=O)n2C the Potency was inactive: > 76.9 µM.
In the case of Cc1ccc(NC(=O)C2CC(=O)NC(Nc3cccc(C)c3)=N2)cc1 (stereo not given), the Potency is reported as inactive: > 76.9 µM.
In the case of Cc1cc(N2CC34C=CC(O3)C(C(=O)O)C4C2=O)no1 (stereo not given), the Potency is reported as inactive: > 76.9 µM.
O=C(O)CCCC(=O)Nc1ccc(Br)cc1C(=O)O was tested, and the Potency was inactive: > 76.9 µM.
For COc1ccc(OC)c(Nc2ncnc3c2cnn3-c2ccccc2)c1, the Potency was inactive: > 76.9 µM.
In the case of CCOC(=O)c1ccc(NC(=O)N2CCN(S(C)(=O)=O)CC2)cc1, the Potency is reported as inactive: > 76.9 µM.
In the case of Cc1ccc(S(=O)(=O)Nc2nsc(N)n2)cc1, the Potency is reported as inactive: > 76.9 µM.
COc1ccc2c(Cl)c(C(=O)NCCCn3ccnc3)sc2c1 was tested, and the Potency was “inactive”.
Cc1cc(NC(=O)CCCC(=O)O)nc(C)n1 was tested, and the Potency was inactive: > 76.9 µM.
CCc1c(C)nc(N)n2c(SCC(=O)N3CCN(c4ccccc4F)CC3)nnc12 was tested, and the Potency was inactive: > 76.9 µM.
For CCOc1ccc(-c2nnc(SCC(=O)N(CC)CC)n2N)cc1, the Potency was inactive: > 76.9 µM.
CNC(=O)Nc1cc(C(C)(C)C)no1 was tested, and the Potency was inactive: > 76.9 µM.
In the case of Cc1cc(=O)n2c(ccc3ccccc32)c1C#N, the Potency is reported as inactive: > 76.9 µM.
For CCSc1nc2c(c(=O)[nH]c(=O)n2C)n1C, the Potency was inactive: > 76.9 µM.
COc1ccccc1C(=O)Nn1c(C2CCC2)nc2ccccc2c1=O was tested, and the Potency was inactive: > 76.9 µM.
With CC(=O)Nc1nc(C)c(Oc2ccccc2)c(=O)[nH]1 the Potency was inactive: > 76.9 µM.
With Nc1nc(N2CCN(C/C=C/c3ccccc3)CC2)nc2ccccc12 the Potency was active: 8.42 µM.
O=C(C1CC(=O)N(C2CCCC2)C1)N1CCC(Cc2ccccc2)CC1 (stereo not given) was tested, and the Potency was inactive: > 76.9 µM.
In the case of COC(=O)c1[nH]c(C)c(/C(O)=C2\C(=O)C(=O)N(CCN(C)C)C2c2ccccc2OC)c1C (stereo not given), the Potency is reported as inactive: > 76.9 µM.
In the case of CCCCOc1ccc(S(=O)(=O)NCc2csc(C)n2)cc1, the Potency is reported as inactive: > 76.9 µM.
For O=C(Cn1cc(C(F)(F)F)ccc1=O)N1CCN(S(=O)(=O)c2ccccc2)CC1, the Potency was inactive: > 76.9 µM.
With CCc1nc2ccccc2n1Cc1ccc(OC)c(OC)c1 the Potency was inactive: > 76.9 µM.
In the case of CCOC(=O)c1nnn(CC(=O)Nc2cc(Cl)ccc2C)c1C(=O)OCC, the Potency is reported as inactive: > 76.9 µM.
In the case of CCOC(=O)COc1nc(OC)nc(N2CCOCC2)n1, the Potency is reported as inactive: > 76.9 µM.
With CCCOc1ccc(-c2nnn(CC(=O)OCC)n2)cc1 the Potency was inactive: > 76.9 µM.
